According to PMC4336329 (PLoS ONE, 2015):
About 2,200 (0.71%) of roughly 310,000 compounds showed an effect of 50% or more. Effects have a minus sign here. This is one part of the list.

target: human ether-à-go-go-related gene (hERG) potassium channel (human, UniProt Q12809); assay: primary screen, population patch clamp on CHO cells stably expressing hERG
Sequence (Q12809 whole entry, looked up): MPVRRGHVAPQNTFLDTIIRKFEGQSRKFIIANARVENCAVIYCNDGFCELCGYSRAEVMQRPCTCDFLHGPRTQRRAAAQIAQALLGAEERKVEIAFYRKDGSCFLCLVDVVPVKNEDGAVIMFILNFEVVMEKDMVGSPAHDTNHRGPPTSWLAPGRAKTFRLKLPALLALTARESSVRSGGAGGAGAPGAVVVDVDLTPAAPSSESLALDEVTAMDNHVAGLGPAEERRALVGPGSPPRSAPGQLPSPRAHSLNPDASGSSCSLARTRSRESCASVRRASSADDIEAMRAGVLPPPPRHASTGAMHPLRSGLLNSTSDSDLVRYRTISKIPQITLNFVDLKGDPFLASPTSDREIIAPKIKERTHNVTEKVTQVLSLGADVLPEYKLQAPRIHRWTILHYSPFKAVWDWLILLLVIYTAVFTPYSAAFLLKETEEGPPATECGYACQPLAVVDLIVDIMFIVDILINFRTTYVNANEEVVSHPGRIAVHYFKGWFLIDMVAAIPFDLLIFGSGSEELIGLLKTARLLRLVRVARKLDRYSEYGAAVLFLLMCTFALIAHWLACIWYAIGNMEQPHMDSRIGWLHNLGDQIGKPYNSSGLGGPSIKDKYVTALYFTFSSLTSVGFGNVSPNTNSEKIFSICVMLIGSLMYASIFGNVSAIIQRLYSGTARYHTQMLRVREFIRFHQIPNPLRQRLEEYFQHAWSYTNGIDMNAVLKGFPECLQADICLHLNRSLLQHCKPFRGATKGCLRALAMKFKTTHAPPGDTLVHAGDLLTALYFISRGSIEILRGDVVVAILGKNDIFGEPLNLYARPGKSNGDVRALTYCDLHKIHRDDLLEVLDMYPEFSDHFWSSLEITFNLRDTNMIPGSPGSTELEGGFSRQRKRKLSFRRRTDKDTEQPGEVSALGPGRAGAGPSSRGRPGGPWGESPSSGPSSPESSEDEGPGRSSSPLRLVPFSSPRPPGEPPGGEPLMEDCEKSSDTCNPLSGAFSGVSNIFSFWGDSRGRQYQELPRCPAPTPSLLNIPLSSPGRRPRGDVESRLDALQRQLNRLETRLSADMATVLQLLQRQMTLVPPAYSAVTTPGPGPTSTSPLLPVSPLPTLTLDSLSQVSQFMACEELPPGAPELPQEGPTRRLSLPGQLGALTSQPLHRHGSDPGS

Structure (SMILES)	hERG current change (%, negative = inhibition) at 1uM
CC(C)Oc1ccccc1NC(=O)CSc1nc2ccccc2c(=O)n1C	3.54%
Cc1ccccc1NC(=O)CSCCN1C(=O)c2ccccc2C1=O	4.91%
O=C(c1cc(-c2ccc(Cl)c(Cl)c2)on1)N1CCCCCC1	1.99%
Cc1ccc(C2=N/C(=C/N3CCOCC3)C(=O)O2)cc1	5.48%
COC(=O)c1ccccc1NC(=O)CN(c1ccc(OC)cc1)S(C)(=O)=O	5.04%
CCN1CCN(C(=O)c2cc(-c3cccnc3)nc3ccc(Br)cc23)CC1	4.57%
COc1cccc(NC(=O)CCC(=O)Nc2cccc(OC)c2)c1	6.48%
COc1cccc(N/C(SC)=C(/C#N)C(=O)NCc2cccs2)c1	3.99%
COc1ccc(CCC(=O)NCCOc2ccc(C)cc2)cc1	8.63%
O=C(NC1CCCCCCC1)c1ccc(F)cc1	14.9%
COc1ccc(N2CCN(CCCNC(=O)CCC(=O)N3CCOc4ccc(Cl)cc43)CC2)cc1	-32.8%
Cc1ccc2c(C)c(C(=O)N(Cc3cccs3)C3CCS(=O)(=O)C3)oc2c1 (stereo not shown)	6.95%
C=CCn1c(O)c(N=NC(=O)CNC(=O)/C=C/c2ccco2)c2ccccc21	-15.5%
CCOC(=O)Cn1nc(/C=C/c2ccc(C(C)C)cc2)ccc1=O	12.2%
O=C(CCNC(=O)c1ccccc1Cl)NCC12CC3CC(CC(C3)C1)C2	12.7%
Cc1ccc([C@@H]2[C@@H]3C(=O)N(C)C(=O)[C@@H]3[C@]3(C)C(=O)N(CCO)CC(=O)N23)o1	-19.9%
CC1CCCN(C(=O)CN2C(=O)C(C)Oc3ccccc32)C1 (stereo not shown)	9.82%
CN1CCN(/N=C/c2c(O)n(Cc3ccc(F)cc3)c(=O)[nH]c2=O)CC1	10.4%
COC(=O)Cn1c(=NC(=O)CCS(=O)(=O)c2ccccc2)sc2c(OC)ccc(OC)c21	12.9%
CCOc1ccccc1NC(=O)CN1C(=O)CSC(C)C1=O (stereo not shown)	2.34%
COc1ccccc1N1CCN(C(=O)CSc2nnc3n2C(C)(C)Cc2ccccc2-3)CC1	-5.9%
CCc1ccccc1NC(=O)CCC(=O)N1CCSc2ccccc21	7.25%

Structure (SMILES)	hERG current change (%, negative = inhibition) at 1uM
O=C(Cn1c(=O)n(Cc2ccco2)c(=O)c2cc(Cl)ccc21)NCC1CCCO1 (stereo not shown)	-2.91%
NC(N)=NCCC[C@H](NC(=O)OCc1ccccc1)C(=O)O	18%
Cc1cnc(C(=O)OCC(=O)N(C(C)C)C(C)C)cn1	17.3%
CC(C)c1ccc(/C=C2\SC(=O)N(CC(=O)NC3C=CS(=O)(=O)C3)C2=O)cc1 (stereo not shown)	9.92%
O=C(NC1(C(F)(F)F)C(=O)Nc2c1c(=O)[nH]c(=O)n2-c1ccc(F)cc1)c1cccnc1 (stereo not shown)	19.6%
CCSc1nnc(NC(=O)CSc2ncccn2)s1	6.95%
O=C(Nc1cc(C(F)(F)F)ccc1N1CCCC1)c1ccc2c(c1)OCO2	11%
CCOc1ccc(CN2CCC(=O)NC2=O)cc1	4.34%
Cc1ccc(-n2ccc(=O)c(C(=O)Nc3ccc(S(=O)(=O)Nc4nccs4)cc3)n2)cc1	16.3%
Cc1ccc(Cl)cc1N1CCN(C(=O)CCC(=O)O)CC1	8.57%
Brc1ccccc1-n1nnc(-c2cccnc2)n1	0.231%
CCOC(=O)Cc1csc(NC(=O)CSc2nc3sc(C(=O)O)c(C)c3c(=O)[nH]2)n1	-7.54%
Cc1ccc(S(=O)(=O)C2(C(=O)NCc3ccc4c(c3)OCO4)CC2)cc1	6.21%
COc1cc([N+](=O)[O-])ccc1NC(=O)NNC(=O)c1sccc1C	-1.62%
CCCCN(C)CCC(=O)Nc1ccc(C)cc1.Cl	7.37%
O=C(CSc1nc2ncc(Cl)cc2[nH]1)NC1CCS(=O)(=O)C1 (stereo not shown)	24.4%
Cc1ccc(S(=O)(=O)N2CCCCC2)cc1C(=O)Nc1ccc(N2CCOCC2)cc1	2.48%
CC1CCN(S(=O)(=O)c2ccc(-c3nnc(SCc4cccnc4)o3)cc2)CC1	15.6%
COc1ccc(-c2ccc(CNCc3ccccn3)o2)cc1Cl.Cl	6.23%
Cc1cc(C)c(C#N)c(SCCN2CCOCC2)n1	18%
O=C(COc1ccc([N+](=O)[O-])cc1)Nc1ccc(S(=O)(=O)N2CCOCC2)cc1	-55.1%
CCOC(=O)N1CCN(C(=O)COc2cccc3c2CCN(Cc2cccc(C)c2)C3=O)CC1	-19.2%

Structure (SMILES)	hERG current change (%, negative = inhibition) at 1uM
O=S(=O)(Nc1ccc(-c2csc(-c3ccccc3)n2)cc1)c1ccc(F)cc1	13.1%
CCCc1nnc(SCC(=O)N(CC)CC)n1CC1CCCO1 (stereo not shown)	13.1%
Cc1cc(CN2C(=O)c3ccccc3C2=O)cc(N2CCOCC2)c1	13.4%
CCN(Cc1ccccc1)S(=O)(=O)c1ccc(S(=O)(=O)N2CCN(CCC#N)CC2)cc1	3.94%
CCc1cccc2c(SC(C)C(=O)NCC3CCCO3)nc(-c3ccccc3)nc12 (stereo not shown)	9.01%
Cc1ccc(S(=O)(=O)CC(O)COc2ccc(C#N)cc2)cc1 (stereo not shown)	-18%
N#Cc1ccc(-c2cn3c(n2)SCC3)cc1	7.45%
Cc1cc(NC(=O)CSc2nc3ccsc3c(=O)n2CCCC(=O)NCCc2ccccc2)no1	5.94%
CCC(=O)c1cn(Cc2ccccc2C#N)c2ccccc12	9.19%
Cc1c(C2(O)CCCCC2)[nH]c2ncccc12	15%
O=C(O)c1ccc(/C=N/NC(=O)c2cc3c(ccc4ccccc43)o2)cc1	8.02%
COc1ccc(C)cc1NC(=O)c1ccc2c(c1)OCO2	0.84%
Cc1cc2c(c(=O)n1C)C(C(C)C)C(C#N)=C(N)O2 (stereo not shown)	12.8%
Cc1[nH]nc2c1C1(CCOCC1)C(C#N)=C(N)O2	-4.73%
NNC(=O)c1nn(-c2ccc(Cl)cc2)ccc1=O	-6.81%
O=C1NN=C(c2ccc(Cl)cc2)CC1c1c[nH]c2ccccc12 (stereo not shown)	12.4%
Cc1ccc(Nc2cc(C)nc(NCc3ccccc3)n2)cc1	5.11%
Cc1cccc2[nH]c(CN(C)C(=O)CC3C(=O)NCCN3CC(C)(C)C)nc12 (stereo not shown)	9.04%
CSc1n[nH]c(NC(=O)c2c(-c3c(Cl)cccc3Cl)noc2C)n1	9.6%
O=C(NCCc1ccc(Cl)cc1)c1nnc(Cc2ccc(Cl)cc2)o1	15.7%
CC(=O)N(CCC(Cc1ccccc1)c1ccco1)Cc1ccco1 (stereo not shown)	2.35%
O=C1c2ccccc2C(Nc2ccc(Cl)cc2)N1CCN1CCOCC1 (stereo not shown)	2.05%

Structure (SMILES)	hERG current change (%, negative = inhibition) at 1uM
CCOC(=O)c1ccc(NC(=S)NNC(=O)c2cc(-c3cccnc3)nc3ccccc23)cc1	15.9%
C=CCn1c(O)c(N=NC(=S)Nc2ccccc2F)c2cc(S(=O)(=O)N3CCOCC3)ccc21	9.01%
Cc1ccc(C)c(SCC(=O)Nc2nnc(-c3ccccc3)o2)c1	13.9%
CCN(CC(=O)Nc1ccc(NC(C)=O)cc1)C(=O)/C=C/c1ccccc1	7.96%
CCOC(=O)C1=C(COC(=O)c2ccc([N+](=O)[O-])o2)NC(=O)NC1C (stereo not shown)	2.11%
CCOc1cc(NC(=S)NCc2ccco2)c(OCC)cc1NC(=O)C1CC1	11.8%
COc1ccc(N(CC(=O)Nc2cccnc2)S(C)(=O)=O)cc1	-9.54%
N=c1nc(-c2ccccc2)ccn1O	9.31%
O=C(Nc1ccc(Cl)cc1)N1CCC(c2ccccc2)C1 (stereo not shown)	-1.01%
COc1cccc(NC(=O)CN2C(=O)NC(C)(c3ccc(C)cc3)C2=O)c1 (stereo not shown)	4.84%
CCOc1ccc(S(=O)(=O)Nc2ccc(C(=O)NNC(=O)c3ccncc3)cc2)cc1	15.8%
O=C(/C=C/c1cccs1)N1CCN(c2ccc(O)cc2)CC1	-0.394%
CCN(C(=O)COC(=O)c1c2c(nc3ccccc13)/C(=C/c1ccccc1)CC(C)C2)C1CCS(=O)(=O)C1 (stereo not shown)	-3.95%
O=C(CN1C(=O)NC2(CCCCC2)C1=O)Oc1ccc2c(C(F)(F)F)cc(=O)oc2c1	14.9%
CCC(C)NCCOCCOc1ccc(C)cc1OC.O=C(O)C(=O)O (stereo not shown)	12.5%
CCCCOc1ccc(N(CC(=O)NC2CCCC2)C(=O)CCC(=O)Nc2ccccn2)cc1	17.1%
COc1cc2[nH]c(=S)nc(NCC3CCCO3)c2cc1OC (stereo not shown)	1.63%
CCCc1nnc(NC(=O)CCC(=O)NCCc2ccc(Cl)cc2)s1	8.03%
COc1cccc(/C=N/NC(=O)c2cc3c(OC)cccc3[nH]2)c1OC	14.5%
CCOc1cc(CNCCN2CCOCC2)ccc1OCc1ccccc1Cl.Cl	-8.01%
CN(C)C(Cc1ccccc1)C(=O)c1c[nH]c2ccccc12.Cl (stereo not shown)	7.43%
CCN(c1ccc(OC)cc1)S(=O)(=O)c1nnc(NC(=O)C(C)C)s1	11.6%
